Measurements from PubChem BioAssay (NCI).
Values joined by “and” are separate entries in the source; they are usually repeats but may differ in a detail not shown here. Equal values may be shown once.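 Test compounds were applied to cells in 96-well plates for 48 hours at 5 doses. Here, GI50 denotes the concentration required for 50% inhibition of growth. TGI: concentration producing complete growth inhibition.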 Active and inactive are the calls of the source. Cut-off read from the data, not from the text of the source: active = GI50 below about 0.43 µM; inactive = the rest.

These molecules were tested on NCI-H322M lung (assay: NCI tumour cell line growth inhibition, 48 h).
With `CCCCCCCCCC1(N=[N+]=[N-])C(=O)c2ccccc2N(C)C1=O` (centres undefined) the TGI was over 100 µM.
Molecule `C=COCCCOc1ccccc1` has a TGI of over 100 µM.
With `COc1cc(C(Cc2ccccc2)NC(C)=O)oc(=O)c1` (centres undefined) the TGI was over 100 µM.
In the case of `C/C(=N\NC(=S)N1CCCCC1)c1nc2ncccc2[nH]1`, the TGI is reported as over 100 µM.
`CCC[CH2][Sn]1([CH2]CCC)[O]N=C(c2ccccc2)C(c2ccccc2)[O]1` (centres undefined) was tested, and the GI50 was 6.84 µM and the TGI was 19.6 µM.
In the case of `CCN(CC)CCCC(CNc1ccnc2cc(Cl)ccc12)c1ccc(Cl)cc1` (centres undefined), the GI50 is reported as 1.51 µM and 1.88 µM and the TGI is reported as 4.13 µM and 4.63 µM.
`O=[N+]([O-])C(=C(Cl)Cl)/C(Cl)=C(\Cl)Br` was tested, and the outcome was “inactive”.
In the case of `C=C(CNCc1ccccc1)c1ccc(C(=O)Nc2ccccc2N)cc1`, the GI50 is reported as 7.12 µM and the TGI is reported as 56 µM.
`CNC(=O)N(C)N=NCCCl` showed a TGI of over 100 µM.
`CC(C)CCN1c2nc(Nc3cc(F)c(O)c(F)c3)ncc2N(C)C(=O)C1C` (centres undefined) gave a GI50 of 7.39 µM and a TGI of 54.7 µM.
In the case of `Cn1c2ccccc2c2c3c(c4c5cc(Br)ccc5n(C)c4c21)C(=O)N(O)C3=O`, the GI50 is reported as 0.374 µM and the TGI is reported as over 100 µM.
`COc1ccccc1/C(=N\OCCC(=O)O)c1cccs1` was tested, and the TGI was over 100 µM.
`Clc1nc2ccccc2nc1CI` showed a GI50 of 19.2 µM and a TGI of 37.7 µM.
`O=C(O)c1ccc(N=C(C(=Nc2ccc(C(=O)O)cc2)c2ccccc2)c2ccccc2)cc1` gave a TGI of over 100 µM.
`CN(CC(=O)O)c1ncc2c(n1)-c1ccccc1SC2` showed a TGI of over 100 µM.
With `NS(=O)(=O)c1ccc(N=Nc2nc3[nH]c(=O)[nH]c(=O)c3[nH]2)cc1` the TGI was over 100 µM.
`CN(C)N=Nc1ccc(NC=O)cc1` showed a TGI of over 100 µM.
`Cc1ccc(NC(=O)C(=O)C(C(=O)c2ccc3ccccc3c2)C2OC(=O)c3ccccc32)cc1C` (centres undefined) gave a TGI of 55.1 µM.
Work on `O=C(NC(Cc1c[nH]c2ccccc12)C(=O)Nc1ccc(Br)cc1)OCc1ccccc1` (centres undefined) yielded a TGI of 44.9 µM.
`CCCCCCCCCCCCOC1C(C(COC2OC(C3COC(C)(C)O3)C3OC(C)(C)OC23)NC(=O)Nc2ccc(C(=O)O)cc2)OC2OC(C)(C)OC21` (centres undefined) gave a GI50 of 2.6 µM and a TGI of 5.3 µM.
In the case of `CCN(CC)CCOc1ccc(-c2nc3cc(Cl)ccc3s2)cc1`, the GI50 is reported as 1.62 µM and the TGI is reported as 3.28 µM.
`CNc1ccc(C(=O)CC(O)CCC(C)C2OC(=O)CC(O)CC(=O)CC(O)CC(O)CC(O)CC(O)CC3(O)CC(O)C(C(=O)NCCN(C)C)C(CC(OC4OC(C)C(O)C(NC(=O)CN5CCN(C)CC5)C4O)/C=C/C=C/C=C/C=C\C=C/C=C/C=C/C2C)O3)cc1` (centres undefined) showed a TGI of over 100 µM.
For `Cc1ccc(C)c(C2=C(c3cn(C)c4ccccc34)C(=O)NC2=O)c1`, the GI50 was over 19.6 µM and the TGI was over 25 µM.
`CCCC(=O)n1[nH]c(=O)n(-c2ccc(Cl)cc2)c1=O` was tested, and the TGI was over 100 µM.
Molecule `CN(Cc1cnc2nc(N)nc(N)c2n1)c1ccc(C(=O)NC(CCC(=O)NCCC(P(=O)(O)O)P(=O)(O)O)C(=O)O)cc1` (centres undefined) has a TGI of over 100 µM.
For `O=C1c2cccc(NCCCNCCO)c2C(=O)c2cccc(NCCCNCCO)c21`, the TGI was 3.39 µM.
`CC(C)=CC/C=C(/C)[C@H]1CC[C@]2(C)[C@@H]1CC[C@@H]1[C@@]3(C)CCCNC(C)(C)[C@@H]3CC[C@]12C` was tested, and the GI50 was 1.87 µM and the TGI was 4.07 µM.
`O=C(O)CC1NC(/C(=C/c2ccccc2)NC(=O)c2ccccc2)OC1=O` (centres undefined) showed a TGI of over 100 µM.
Work on `CC(=O)N(C)c1ccc(Nc2cc(C)[nH]c3ccc4ncnc4c23)cc1` yielded a TGI of 29.2 µM.
Work on `COc1ccc(C2COc3cc(OC(C)=O)c(OC(C)=O)cc3C2)cc1` (centres undefined) yielded a TGI of 48.5 µM.
In the case of `Nc1ccc2c(c1)N(C(=O)c1cc3cc(NC(=O)c4cc5ccccc5o4)ccc3[nH]1)CC2CCl` (centres undefined), the TGI is reported as over 39.8 µM.
In the case of `N#Cc1nc2ccccc2nc1N1CCN(c2ccc([N+](=O)[O-])cc2)CC1`, the TGI is reported as over 100 µM.
For `O=C(OC(CNc1cc(=O)n(Cc2ccccc2)c(=O)n1Cc1ccccc1)CN1CCCC1)c1ccccc1` (centres undefined), the GI50 was over 100 µM and the TGI was over 100 µM.
`COC(=O)C1=C(O)c2cc(OC)c(OC)cc2C(c2ccc(OC)c(OC)c2)C1` (centres undefined) gave a TGI of over 100 µM.
`O=C(CCn1[nH]c(=O)c(Cl)c(Cl)c1=O)NO` was tested, and the TGI was over 100 µM.
With `O=C(O)CCC(=O)c1ccc[nH]1` the TGI was over 100 µM.
Work on `Nc1ncnc2c1ccn2C/C=C\CO` yielded a TGI of over 100 µM.
`Cc1cc(C)n(C(=C(C(Cl)=C(Cl)Cl)[N+](=O)[O-])n2nc(C)cc2C)n1` gave a TGI of 14.8 µM.
`O=C1/C(=C/c2ccc(Br)cc2)COc2ccc(O)c(O)c21` showed a GI50 of 1.5 µM and a TGI of 3.11 µM.
Molecule `COc1cc2nc(-c3ccc(Cl)cc3)cc(OCCCN3CCCCC3)c2cc1OC` has a GI50 of 4.42 µM and a TGI of over 100 µM.
`CC(C)N(C(=O)C12C3C4C5(C#N)C3C1(C#N)C5C42I)C(C)C` (centres undefined) gave a TGI of over 100 µM.
With `O=c1cc(N2CCOCC2)[nH]c(=O)n1-c1ccc(F)cc1` the TGI was over 100 µM.
`O=S1(=O)C[C@H](O)[C@H](O)CS1` was tested, and the TGI was over 100 µM.
With `Cc1cc([N+](=O)[O-])ccc1Nc1cccc(Cl)c1C` the TGI was 37.1 µM.
`CCCCc1c(N(C)C)c(OC(C)=O)c(-c2cn(C)c3ccccc23)oc1=O` gave a TGI of over 100 µM.
For `CCC(C)n1ncn(-c2ccc(N3CCN(c4ccc(OCC5COC(Cn6cncn6)(c6ccc(Cl)cc6Cl)O5)cc4)CC3)cc2)c1=O` (centres undefined), the GI50 was over 100 µM and the TGI was over 100 µM.
`OC1(C(F)(F)F)OCCN=C1C(F)(F)F` (centres undefined) showed a TGI of over 100 µM.
`N#CC(=C1C=CC(=NO)C=C1)c1ccccc1` showed a GI50 of 4.26 µM and a TGI of 21 µM.
Work on `CCc1cc2c(oc3cc4ccccc4cc32)c(=O)[nH]1` yielded a TGI of over 10 µM.
`CN(C)CCCNC(=O)c1cc2[nH]c3c(cnc4ccc([N+](=O)[O-])cc43)c(=O)c2n1C` was tested, and the GI50 was 15.7 µM and the TGI was 33.1 µM.
Work on `O=C(C=P(c1ccccc1)(c1ccccc1)c1ccccc1)c1ccc(-c2cccc([N+](=O)[O-])c2)s1` yielded a TGI of over 100 µM.
Molecule `S=C(Nc1ccccc1)N(/N=C/C=C/c1ccccc1)c1nnc(-c2ccccc2)c(-c2ccccc2)n1` has a TGI of over 100 µM.
For `NC(=O)NC1C(c2ccccc2)=C1c1ccccc1`, the TGI was 49.7 µM.
Molecule `OC[C@H]1C[C@](O)(c2ccc(Cl)cc2)[C@@H](c2ccc(Cl)cc2)O1` has a GI50 of 35.2 µM and a TGI of over 100 µM.
`O=C(Nc1ccc(Cl)cc1F)c1ccccc1O` was tested, and the GI50 was 2.66 µM and the TGI was over 100 µM.
With `CCOC(=O)C1(C#N)C(c2ccccc2)CC(O)(c2ccc(OC)cc2)C(C(=O)c2ccc(OC)cc2)C1c1ccccc1` (centres undefined) the TGI was over 100 µM.
In the case of `Cc1cc(C)nc(NC(=O)c2ccc(Br)s2)c1`, the TGI is reported as over 100 µM.
`COC(=O)C(=Cc1cc(OC)ccc1OC)C(=O)OC` showed a TGI of over 100 µM.
Work on `COc1ccc(C(C)=O)cc1N1C(=O)C2C(C1=O)C1(c3ccccc3)C(=O)C2(c2ccccc2)C(c2ccc(C)cc2)=C1c1ccc(C)cc1` (centres undefined) yielded a GI50 of over 100 µM and a TGI of over 100 µM.
With `O/N=C/C1C(OCc2ccccc2)C(OCc2ccccc2)C(OCc2ccccc2)CN1Cc1ccccc1` (centres undefined) the GI50 was 11.5 µM and 47.2 µM and the TGI was 89.5 µM and > 100 µM.
Work on `CCCCCCCCCCCCCC1=NC(C)(C)CN1C(C)C` yielded a GI50 of 1.67 µM and a TGI of 3.07 µM.
`COc1ccc2c3c([nH]c2c1[N+](=O)[O-])C(C)=NCC3` showed a TGI of over 100 µM.
In the case of `COC(=O)CCC1=CCC2(SC)C(=O)Nc3cccc1c32` (centres undefined), the TGI is reported as over 100 µM.
In the case of `CC(=O)Nc1ccc(C(=O)NN2C(=O)CSC2c2ccc([N+](=O)[O-])cc2)cc1` (centres undefined), the TGI is reported as over 100 µM.
With `COc1cc(N(CCC#N)CCC#N)ccc1/C(N=Nc1ccc([N+](=O)[O-])cc1)=N/NC(=O)c1cc(Br)ccc1O` the GI50 was 40.5 µg/mL and the TGI was over 150 µg/mL.
For `NC(=Nc1c([N+](=O)[O-])cnc2ccccc12)N1CCOCC1`, the TGI was over 100 µM.
`CC(C)(C)OC(=O)N1CCc2[nH][nH]c(=O)c2C1` showed a TGI of over 100 µM.
In the case of `COc1ccc(CN2C(=O)/C(=C\C(=O)c3ccc(OCCN4CCCCC4)cc3)c3ccccc32)cc1`, the GI50 is reported as 13.3 µM and the TGI is reported as 26.3 µM.
Molecule `CCCn1c2ccccc2c2ccc3c(c21)C(=O)C=CC3=O` has a TGI of over 10 µM.
Work on `O=C1NC(=O)C(c2cnc3ccccn23)=C1c1cn2c3c(cc(F)cc13)CN(C(=O)N1CCCCC1)CC2` yielded a GI50 of 16.6 µM and a TGI of 36 µM.
